Results reported in the BET-seq Pho4 binding data (Le et al. 2018).
Some of the results follow. The energies were worked out here from pooled read counts, against the library average; single values are noisy.

Target: T1, Pho4 (S. cerevisiae) (UniProt P07270)
T1 sequence: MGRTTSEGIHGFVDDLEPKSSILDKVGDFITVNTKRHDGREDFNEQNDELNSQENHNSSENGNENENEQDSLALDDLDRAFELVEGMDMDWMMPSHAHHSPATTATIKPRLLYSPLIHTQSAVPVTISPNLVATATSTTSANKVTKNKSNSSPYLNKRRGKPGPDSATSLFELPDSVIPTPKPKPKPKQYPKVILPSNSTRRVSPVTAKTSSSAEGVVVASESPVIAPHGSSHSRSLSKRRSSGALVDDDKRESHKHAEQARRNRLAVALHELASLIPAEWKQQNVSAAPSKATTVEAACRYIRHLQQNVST
Assay: relative binding free energy (BET-seq); higher = weaker binding
Conditions: reference: library average

Sequence | relative binding free energy [kcal/mol]
ATAGTCACGTGGTTTG | 0.05
GTAGACACGTGCGTTT | 0.01
CGGTTCACGTGGTAGC | 0.27
CAAGACACGTGGGGTG | -0.12
GTAGTCACGTGGACGG | 0.08
CTAGTCACGTGGGGTG | -0.12
GGAGACACGTGTGTTA | -0.01
AGATACACGTGGCGGT | -0.06
TTTTGCACGTGTATAT | -0.02
GATTTCACGTGTAGTT | 0.26
GATGTCACGTGTAAGT | 0.28
GTGAGCACGTGTGATG | 0.03
TTATGCACGTGAAGAT | 0.17
GGGTGCACGTGAAGAG | 0.44
TGGACCACGTGATGGT | 0
CGGGACACGTGGTTAT | -0.08
GTTCGCACGTGCAGGT | 0.04
TGTGGCACGTGGTGAT | -0.11
CAGTTCACGTGTGATT | 0.23
GGTGGCACGTGTAGTG | 0
ATGTACACGTGGACGG | 0.13
TCTGTCACGTGGTCGG | -0.01
CTGGCCACGTGTTTGG | -0.18
TGAGTCACGTGGGACA | 0.1
TTTGGCACGTGAAGTA | 0.06
CTTTACACGTGGGTGG | 0

Sequence | relative binding free energy [kcal/mol]
AAAGGCACGTGGGAGC | -0.14
GATTACACGTGTGTCT | 0.22
TTTGCCACGTGGTTGC | -0.11
TATATCACGTGGGTAA | -0.02
TATGGCACGTGTCAGG | -0.06
TTCAGCACGTGGGTCG | -0.02
ATCTGCACGTGGTGGG | -0.02
TGCATCACGTGGGGCG | 0
CAATTCACGTGTAGTG | 0.25
GGTTGCACGTGTCACG | 0.04
ACTGTCACGTGGGCTT | -0.01
GTGTTCACGTGGAAGA | 0.23
AGGTACACGTGATTGT | 0.09
AATGACACGTGATGTG | 0.07
GTGTGCACGTGTTGAC | 0.16
CTTATCACGTGGAGTT | 0.24
AATAGCACGTGTAAGG | -0.01
AGGTCCACGTGAGGTG | 0.19
AAGGTCACGTGGGGTT | -0.15
TCCGGCACGTGGGGTA | -0.12
ATTAGCACGTGGATAG | -0.02
TGTGACACGTGTAGTG | 0.05
ATGATCACGTGATGGT | 0.22
GAGACCACGTGGGTTG | -0.05
TCTTGCACGTGGAGAG | 0.03
TAATGCACGTGATTCG | 0.09

Sequence | relative binding free energy [kcal/mol]
AGTCGCACGTGTGATG | 0.05
TGGGGCACGTGAAATT | 0.28
GTGATCACGTGGTGTG | 0.09
TGGTTCACGTGGATGA | 0.1
GATTGCACGTGTGGGC | 0.13
GGCTTCACGTGCGTTT | 0.34
AGAATCACGTGCATGG | 0.18
GCGGGCACGTGTGATT | 0.13
AATGGCACGTGGTATG | -0.14
TATTGCACGTGGCCGG | -0.23
GTTGTCACGTGAAAAT | 0.33
GTTGACACGTGGGTTA | -0.15
GTCTTCACGTGATGTT | 0.3
GGGTACACGTGTCGGA | 0.2
AGGTACACGTGGATAG | 0.07
TTAGACACGTGTACTG | 0.08
GTGGACACGTGAATTT | 0.31
CGAAGCACGTGTTTGG | -0.19
TCGGGCACGTGTGGCC | 0.16
GTTTGCACGTGACCGG | 0.11
TTGAACACGTGGGCAT | -0.12
CTTAGCACGTGTTATG | -0.16
AATAGCACGTGTTGCT | -0.12
CGGGACACGTGTATAG | 0.05
ACGGCCACGTGGTAGG | -0.08
AAGTTCACGTGCACGG | 0.39

Sequence | relative binding free energy [kcal/mol]
TGGTGCACGTGAGTAA | 0.04
AATGGCACGTGTGCGT | -0.22
CTGAGCACGTGAGGGA | 0.2
AGTGGCACGTGGGATC | -0.16
GCGTACACGTGGGGTC | -0.03
ATGATCACGTGTGTAA | 0.09
GGTCGCACGTGGAATG | 0.16
TGCGACACGTGATGGG | 0.17
GGAGTCACGTGGCCTG | 0.03
TAGGCCACGTGCGTGT | -0.27
ACTTTCACGTGTTGTA | 0.26
TGTATCACGTGTTCGG | 0.18
AATTGCACGTGCTAGT | -0.04
AGTTACACGTGTAGAT | 0.32
AGTGCCACGTGGGTGC | -0.3
AAATGCACGTGGAGGC | 0.01
ATATTCACGTGAAAGG | 0.38
ATTAACACGTGAGGTG | 0.22
GGTGACACGTGGTACG | 0.02
TAGCACACGTGGTGTT | -0.12
GTCATCACGTGCGGGG | 0.14
TATTTCACGTGTACTG | 0.18
TATGCCACGTGAGTGG | 0.14
TGTGGCACGTGTGGAA | -0.04
TTTGTCACGTGAGATT | 0.26
CTTTCCACGTGTGTGT | -0.04

Sequence | relative binding free energy [kcal/mol]
AAAATCACGTGGGTAA | 0.13
TTTTTCACGTGGGTTG | 0.19
CTGTGCACGTGGTGCT | -0.08
TGTGGCACGTGAGTTA | 0.12
GGGGGCACGTGCGAGA | -0.13
CGTGGCACGTGCTGTA | -0.17
CCTTTCACGTGGGGGG | 0.09
ATGTACACGTGCGGTC | -0.01
TCGGTCACGTGATGTC | 0.35
AATGTCACGTGCTAGG | -0.02
ATAGACACGTGTATTG | 0.12
GGTTTCACGTGCGCGG | 0.28
AGGTACACGTGCGTTA | 0.05
TGTAGCACGTGATGTG | -0.01
CTTGACACGTGATGTT | 0.11
ATTGACACGTGCAGTG | -0.04
TTCTGCACGTGTGGAC | 0.12
CGTATCACGTGAGGGC | 0.31
ATCGGCACGTGTGTTC | -0.05
GGATGCACGTGTACGG | -0.13
TAATGCACGTGTAGTG | 0.03
ATAAGCACGTGTTGAT | -0.17
TTGAACACGTGGCAGT | 0.09
GGTGACACGTGGGGCA | -0.04
TTATCCACGTGTGTTA | 0.06
GTACTCACGTGGGGTG | 0.07

Sequence | relative binding free energy [kcal/mol]
GTGGGCACGTGGTAGA | -0.09
TGGGTCACGTGGGGGG | -0.01
TGTTTCACGTGACGAA | 0.32
GTGATCACGTGTGTAT | 0.22
TGTGTCACGTGGAGGG | 0.02
GTAGACACGTGGTAGG | 0.05
CGGGGCACGTGGGCTT | -0.11
TAGTGCACGTGTCTGA | -0.04
TAGGGCACGTGCTTGA | -0.23
ACTAGCACGTGGTGGG | -0.08
AATGGCACGTGGAGAA | -0.11
TGCGACACGTGGCTGG | -0.01
GTGGACACGTGCGTGT | -0.12
AAACGCACGTGGGTGA | -0.13
CTTTTCACGTGCTGAG | 0.24
TATTACACGTGATAGT | 0.23
TTTTGCACGTGGTGAG | 0.04
TGTGGCACGTGCGAAG | -0.12
GAAAGCACGTGTGTTA | -0.07
ATTGTCACGTGTCTAT | 0.1
AGAGTCACGTGTTCTT | 0.07
TTCAACACGTGATGGT | 0.2
TTTATCACGTGAGTAG | 0.38
AAGGTCACGTGATCTG | 0.11
AGTATCACGTGAAGAT | 0.36
GTGAACACGTGCGAGG | -0.03

Sequence | relative binding free energy [kcal/mol]
GGTTACACGTGATGTA | 0.15
ATGTACACGTGAGAAT | 0.18
GTATGCACGTGTGCGG | 0
GCGATCACGTGGGAGT | 0.15
TGATTCACGTGGGAAA | 0.13
TGTCGCACGTGCATGT | -0.14
ATATTCACGTGTAAAT | 0.23
GTATTCACGTGTATCT | 0.38
CGGTGCACGTGTGGTT | -0.03
GTTTACACGTGTGGTC | 0.29
GTGTACACGTGATCGT | 0.27
GATACCACGTGGTGGG | -0.08
ATATCCACGTGGGTGT | -0.2
ACGTACACGTGGGTAG | -0.01
AGTAGCACGTGGGTCG | -0.22
GGGATCACGTGATATT | 0.27
AGGTGCACGTGTTGAA | 0.03
GGCATCACGTGCTGTG | 0.19
GGGGTCACGTGCATAG | -0.04
GAGGTCACGTGCGGCG | 0.04
TAGGACACGTGGATAG | 0.05
TAGAGCACGTGGTTTC | -0.12
GAGGTCACGTGCTTTG | 0.21
AATGTCACGTGTCTTT | 0.1
ATCTTCACGTGTAGTG | 0.09
GTAAACACGTGTTGTA | 0.06

Sequence | relative binding free energy [kcal/mol]
GGGAACACGTGGTAGT | 0
GCTTTCACGTGTAGAG | 0.39
AGGTGCACGTGTTGCG | 0.07
ATTATCACGTGGCATT | 0.02
AGTAACACGTGGTTTA | -0.13
GGAATCACGTGGTTGC | 0.17
GAGAGCACGTGGGCTG | -0.34
TATGGCACGTGGTATT | -0.1
CAGTTCACGTGGTGGC | 0.14
CTTGTCACGTGTTTTC | 0.12
TCGGACACGTGAATGG | 0.31
AAGGGCACGTGTGTTC | -0.19
GTTGACACGTGGTTGA | -0.1
ATTGTCACGTGAATGG | 0.3
TCGTTCACGTGAGATG | 0.5
TGTAACACGTGCATTT | 0.1
CGGGGCACGTGGGGTC | -0.22
ATGTGCACGTGATTAT | 0.05
AGGGACACGTGGAATT | 0.16
TAAAGCACGTGCGGTT | -0.23
CGAGGCACGTGTTTGA | -0.13
GTAGGCACGTGGCTCG | -0.12
GTGTTCACGTGATATC | 0.34
TCTTGCACGTGGCATT | -0.03
CGGGTCACGTGTTGTA | 0.05
AGGAGCACGTGGAGTA | -0.04

Sequence | relative binding free energy [kcal/mol]
TTGCTCACGTGCGGTG | 0.04
GTTCACACGTGGTAGA | 0.19
GTTGACACGTGCTTTG | -0.01
GGTTTCACGTGGAAGA | 0.38
TTATGCACGTGGATTC | 0.08
GTTGTCACGTGTGTTA | 0.12
GTGATCACGTGCTTTT | 0.11
AGATGCACGTGACGGG | 0.19
AGGGCCACGTGTCGTG | -0.03
AATGCCACGTGGTGTG | -0.19
TAGTGCACGTGTTTCT | -0.02
GGAGGCACGTGCAGAG | -0.03
CGGTGCACGTGGCGTG | -0.06
TGTTACACGTGAGCGT | 0.22
TGATCCACGTGTGCGT | 0.18
TTGTGCACGTGTTTCC | -0.05
TCAATCACGTGTAGGG | 0.11
GGGATCACGTGGATTT | 0.32
GTAGACACGTGATGAT | 0.22
ATTCGCACGTGTCGGG | 0.02
TTAGTCACGTGGTATC | -0.07
GTCGTCACGTGGGTTG | 0.16
